Data on 22 molecules can be found in the supplement of paper PMC11369174, “Proteome-scale characterisation of motif-based interactome rewiring by disease mutations” (Molecular Systems Biology, 2024).

This is one part of the list. The data scatter; read single values as rough.

Test in all cases: mutation enrichment score (mutant vs wild-type peptide binding to bait); baits are purified protein domains named by gene / domain / UniProt id / residues; peptides come from disordered regions of human proteins; higher = mutation enhances binding relative to wild type
Experiment [1] has as its target T1, AP1G2_GAE__O75843_665_785.
T1 chain: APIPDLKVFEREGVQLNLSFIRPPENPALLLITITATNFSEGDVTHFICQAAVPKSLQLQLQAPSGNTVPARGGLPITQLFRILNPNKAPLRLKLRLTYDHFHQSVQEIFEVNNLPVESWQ
As to conditions: paper call: no_effect, wild-type window: ….

The target of experiment [2] is ALYREF_RRM__Q86V81_78_183. The conditions noted are these: number of wild-type / mutant comparisons summed (bounds the score): 6; paper call: no_effect; wild-type window: ….
The target in experiment [3] is T2, GRAP2_SH3_2_O75791_274_329.
T2 chain: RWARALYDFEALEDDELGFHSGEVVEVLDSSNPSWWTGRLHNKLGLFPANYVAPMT
The conditions noted are these: number of wild-type / mutant comparisons summed (bounds the score): 6; paper call: no_effect; wild-type window: ….

The target in experiment [4] is Intersectin-1_SH3_1_Q15811_740_806. The conditions noted are these: number of wild-type / mutant comparisons summed (bounds the score): 6; paper call: no_effect; wild-type window: ….
For experiment [5], the target named is Intersectin-1_SH3_3_Q15811_1002_1060. The conditions noted are these: number of wild-type / mutant comparisons summed (bounds the score): 6; paper call: no_effect; wild-type window: ….
The target in experiment [6] is Intersectin-1_SH3_5_Q15811_1155_1214. The conditions noted are these: number of wild-type / mutant comparisons summed (bounds the score): 6; paper call: no_effect; wild-type window: ….
The next experiment has as its target Src_SH3__P12931_87_144. As to conditions: number of wild-type / mutant comparisons summed (bounds the score): 6; paper call: no_effect; wild-type window: ….
The target of the next experiment is T3, AP2_Mu__Q96CW1_160_435.
T3 chain: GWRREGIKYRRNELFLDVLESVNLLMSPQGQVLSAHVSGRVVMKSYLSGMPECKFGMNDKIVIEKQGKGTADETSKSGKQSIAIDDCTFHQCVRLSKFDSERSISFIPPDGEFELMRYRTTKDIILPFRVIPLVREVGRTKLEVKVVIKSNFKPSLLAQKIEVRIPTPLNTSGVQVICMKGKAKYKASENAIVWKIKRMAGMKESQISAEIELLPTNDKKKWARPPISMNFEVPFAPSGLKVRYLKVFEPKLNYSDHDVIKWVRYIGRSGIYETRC
The conditions noted are these: number of wild-type / mutant comparisons summed (bounds the score): 6, wild-type window: ….

For experiment [7], the target named is T4, EPHB2_Pkinase__P29323_604_898.
T4 chain: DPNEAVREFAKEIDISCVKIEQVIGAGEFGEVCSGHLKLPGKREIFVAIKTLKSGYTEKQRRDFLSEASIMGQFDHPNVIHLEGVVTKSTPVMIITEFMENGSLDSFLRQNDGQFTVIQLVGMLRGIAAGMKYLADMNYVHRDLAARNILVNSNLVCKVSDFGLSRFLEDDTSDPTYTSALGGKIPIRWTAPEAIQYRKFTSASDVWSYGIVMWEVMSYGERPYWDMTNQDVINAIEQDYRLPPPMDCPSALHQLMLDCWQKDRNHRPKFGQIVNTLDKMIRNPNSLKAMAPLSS
As to conditions: number of wild-type / mutant comparisons summed (bounds the score): 6; paper call: no_effect; wild-type window: ….

In another experiment the target is EZR_FERM_1_P15311_2_295. As to conditions: number of wild-type / mutant comparisons summed (bounds the score): 5; paper call: no_effect; wild-type window: ….
Experiment [8] addresses T5, AP2B1_adaptin__P63010_700_937.
T5 chain: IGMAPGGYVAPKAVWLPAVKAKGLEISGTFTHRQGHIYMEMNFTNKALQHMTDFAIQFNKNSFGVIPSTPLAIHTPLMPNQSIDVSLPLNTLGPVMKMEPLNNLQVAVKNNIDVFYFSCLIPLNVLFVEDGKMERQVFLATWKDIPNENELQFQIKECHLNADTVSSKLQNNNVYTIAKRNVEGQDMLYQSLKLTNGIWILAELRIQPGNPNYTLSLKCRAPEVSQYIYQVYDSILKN
As to conditions: wild-type window: ….

The next experiment deals with T6, EPS15_EH__P42566_121_215.
T6 chain: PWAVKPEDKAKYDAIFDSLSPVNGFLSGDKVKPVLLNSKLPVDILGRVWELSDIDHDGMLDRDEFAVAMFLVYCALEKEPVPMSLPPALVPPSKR
The conditions noted are these: number of wild-type / mutant comparisons summed (bounds the score): 6; paper call: no_effect; wild-type window: ….

Where [9] appears, read: number of wild-type / mutant comparisons summed (bounds the score): 6.
The mark [10] stands for this setting: number of wild-type / mutant comparisons summed (bounds the score): 12.
The mark [11] stands for this setting: number of wild-type / mutant comparisons summed (bounds the score): 6, paper call: no_effect.

EZR_FERM_1_P15311_2_295, sequence (chain, as listed by the source): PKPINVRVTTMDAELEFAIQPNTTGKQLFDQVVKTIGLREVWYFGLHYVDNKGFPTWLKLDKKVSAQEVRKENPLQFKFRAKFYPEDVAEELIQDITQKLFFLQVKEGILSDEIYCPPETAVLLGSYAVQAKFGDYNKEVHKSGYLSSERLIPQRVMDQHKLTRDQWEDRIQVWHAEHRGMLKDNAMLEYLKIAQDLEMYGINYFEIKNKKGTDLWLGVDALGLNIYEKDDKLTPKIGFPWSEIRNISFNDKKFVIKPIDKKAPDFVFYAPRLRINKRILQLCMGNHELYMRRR

Turning to GGGPTIETLELQSERSAVAWLWFQNRRAKWRKMEKLNGKES [V350L V350L], the mutation enrichment score in [1] (setting [9]) was -5.7.
The same measure, in the same setting: the same measure for SFQGKESIFGDNMNELQTFVTNRQKDNLNNYVFQGQHPLTL [A968T A968T]: 4.
As to QGTTSRAGHLAGPEPAPPPPLPPREPFAPSLGSAFHLPDAP [P224L P224L], the mutation enrichment score is -2 in [2]; 5 in experiment [3]; 6 in experiment [4]; 6 in experiment [5]; -3.2 in [6]; 5.9 with Src_SH3__P12931_87_144.
GSLVAGWSGGGPTIETLELQTERSAVAWVWFQNRRAKWRKM [S342T S342T]: the mutation enrichment score in experiment [1] (setting [9]) was found to be 5.1.
Regarding EYKILLDVKTRLEQEIATYRPLLEGEDAHLSSSQFSSGSQS [R417P R417P], the mutation enrichment score in the experiment with AP2_Mu__Q96CW1_160_435 (paper call: no_effect) turned out to be 5.
Take HDRDLLVGAAKHGVSRTDYHNLNDPELSFLDAHKNFAQNRG [I2116N I2116N]: the mutation enrichment score with AP2_Mu__Q96CW1_160_435 (paper call: diminished) was -6.
Take AFGVLMWEIYSLGKMPYERFINSETAEHIAQGLRLYRPHLA [T602I T602I]: the mutation enrichment score in the experiment with AP2_Mu__Q96CW1_160_435 (paper call: enhanced) stood at 6.
GENDHFDTYADALWWGLITLITIGYGDKYPQTWNGRLLAAT [T276I T276I]: the mutation enrichment score is 0 with AP2_Mu__Q96CW1_160_435 (paper call: no_effect), -1 in experiment [7] and 0 with EZR_FERM_1_P15311_2_295.
For LDVKTRLEQEIATYRRLLEGKDAHLSSSQFSSGSQSSRDVT [E422K E422K], in the experiment with AP2_Mu__Q96CW1_160_435 (paper call: no_effect), the mutation enrichment score worked out at 0.
As for QQNQEYKILLDVKTRLEQEITTYRRLLEGEDAHLSSSQFSS [A413T A413T], in the experiment with AP2_Mu__Q96CW1_160_435 (paper call: no_effect), the mutation enrichment score was 2.
For SESRISEWTFQPFTNHSVDGQQRGASPRLWDIKVQGPPMFQ [P118Q P118Q], in experiment [8] (number of wild-type / mutant comparisons summed (bounds the score): 6, paper call: diminished), the mutation enrichment score is -6.
As for DEYQELLDIKLALDMEIHAYHKLLEGEEERLRLSPSPTSQR [R377H R377H], the mutation enrichment score with AP2_Mu__Q96CW1_160_435 (paper call: enhanced) was found to be 6.
In the case of DEYQELLDIKLALDMEIHAYLKLLEGEEERLRLSPSPTSQR [R377L R377L], in the experiment with AP2_Mu__Q96CW1_160_435 (paper call: no_effect), the mutation enrichment score was 1.
As to ADWLSHYWMPKWINATDPSACTLTHYKSAVKA [R550C R550C], the mutation enrichment score in [8] (number of wild-type / mutant comparisons summed (bounds the score): 6, paper call: enhanced) worked out at 6.
Turning to ESDEVNEGELKEIKQDISSLCYELLEEKSQNTEDLAELIRE [R895C R895C], in the experiment with AP2_Mu__Q96CW1_160_435 (paper call: no_effect), the mutation enrichment score was -1.
Turning to ESDEVNEGELKEIKQDISSLLYELLEEKSQNTEDLAELIRE [R895L R895L], the mutation enrichment score with AP2_Mu__Q96CW1_160_435 (paper call: no_effect) is -1.
Regarding DLIAKVQADEQFGIWLDSSSLEQTVPYLWSEETPATPIGQA [P3966L P3966L], the mutation enrichment score in experiment [1] (setting [10]) is -5.
For the molecule DLIAKVQADEQFGIWLDSSSREQTVPYLWSEETPATPIGQA [P3966R P3966R], the mutation enrichment score in experiment [1] (setting [10]) was -3.7.
For the molecule GTGGKSPRLTQSSGFFGNLSIVTNLDDSNWAAAFSSQRSGL [M101I M101I], in [8] (setting [11]), the mutation enrichment score stood at 0.77.
Take RERTPCAETPAEPVDWAFAQHELLEKQGIDMKQEMEQRLQE [R624H R624H]: the mutation enrichment score in experiment [8] (number of wild-type / mutant comparisons summed (bounds the score): 18, paper call: enhanced) came out at 5.9.
Take LYTLWVTFQVLLYTSLPDFCLKFLPGYVGGIQEGAVTPAGV [H119L H119L]: the mutation enrichment score in experiment [8] (setting [11]) worked out at 3; with EPS15_EH__P42566_121_215, 2.
Consider SHCDTFNNQPLCSENFLIAAMEAWGFQDPDTQ [V548M V548M], for which, in experiment [8] (number of wild-type / mutant comparisons summed (bounds the score): 12, paper call: no_effect), the mutation enrichment score was -2.8.
